# Source: PubChem BioAssay AID504845 (National Center for Advancing Translational Sciences (NCATS), 2011)
# In all, about 390,000 compounds went through this assay and about 150 (0.038%) were called active. The inconclusive results got no clear call from the source; some entries with a clear call stand among them for comparison. The call rests on the fitted dose curve; in most records, active means well fitted inhibition curve with a large enough effect; inconclusive means small, poorly fitted or top-dose-only effect; inactive means no such curve, though single readings can be large or run the other way. Potencies of inconclusive entries are doubtful fits and often do not repeat. Where a structure was tested more than once in an assay, its records may differ in their call.
# Biological target: Regulator of G-protein signaling 4 (Homo sapiens) (UniProt P49798)
# UniProt P49798, sequence (P49798 whole entry, looked up): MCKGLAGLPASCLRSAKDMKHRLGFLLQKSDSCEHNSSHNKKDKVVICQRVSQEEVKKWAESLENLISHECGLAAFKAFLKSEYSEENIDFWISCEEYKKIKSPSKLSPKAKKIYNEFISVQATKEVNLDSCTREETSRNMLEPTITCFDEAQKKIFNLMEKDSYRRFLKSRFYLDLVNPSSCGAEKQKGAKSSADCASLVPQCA
# Assay: Inhibitors of Regulator of G Protein Signaling (RGS) 4: qHTS; further: nearly all actives have a fitted effect of over 75% in size
# Conditions: Transcreener GDP fluorescence polarization, RGS4-accelerated GTP hydrolysis; series mostly up to 114 µM
# From the text: G-protein-coupled receptors (GPCRs) are well-established targets for drug discovery and development. Members of the "regulator of G-protein signaling" (RGS)-protein superfamily have recently emerged as critical modulators of specific GPCR signaling pathways. […] Combining specific RGS domain inhibitors with existing GPCR agonists should potentiate cellular responses and could also increase the specificity of action of existing therapeutics. Small molecule modulators of RGS domain activity should also have clinical utility in inhibiting or potentiating the actions of endogenous GPCR agonists. In particular, the diversity of RGS proteins with highly localized and dynamically regulated distributions in the human brain makes this family of proteins attractive targets for pharmacotherapy of central nervous system (CNS) disorders such as Parkinson's disease, schizophrenia, and anxiety.
# This assay was used to screen the NIH Molecular Libraries Small Molecule Repository (MLSMR) in order to identify a small molecule that inhibits RGS4.
# NIH Chemical Genomics Center [NCGC]
# NIH Molecular Libraries Probe Centers Network [MLPCN]
# Assay Submitter (PI): David Siderovski, University of North Carolina Chapel Hill (School of Medicine)
# Two microliters of 500nM (2x working concentration) is dispensed into black medium-binding solid-bottom Kalypsys plates. Then with the Kalypsys pintool 23nl of control and compounds are transferred; the control compound is […] CCG-4986 (working concentration). After a 10 minute incubation at room temperature 2ul of antibody is added with the Kalypsys dispenser; (-)RGS4/Transcreener GDP solution in columns 3 and 4 which consisted of 10nM (2x working concentration) Alexa633, 20uM GTP, and 20 ug/ml GDP antibody and (+)RGS4/Transcreener GDP solution in columns 1,2, and 5 to 48 which consists of 900nM RGS4 (2x working concentration), 10nM Alexa633, 20 ug/ml GDP antibody. The plate is centrifuged at 1000 RPM for 15 seconds to remove any possible bubbles and then incubated for 5 minutes at ambient room temperature. An initial fluorescent polarization read (620 nm/688 nm) is performed on the Envision before the plate is incubated for 90 minutes at 30 deg C at a relative humidity of 80%. The plate is once more centrifuged at 1000 RPM for 15 seconds and another Envision fluorescent polarization (620 nm/688 nm) read is carried out.
# On the % scale 0 is the no-effect control and ±100 the full control effect; potency means the concentration at half of the fitted maximal effect; tags describe the fitted curve by direction and shape.
SMILES,Potency,"activity change, negative = inhibition"
COc1ccccc1N1CCN(Cc2ccc(F)cc2)CC1,inactive,–
CCc1ccccc1NC(=O)CSc1nnc([C@@H](N)Cc2c[nH]c3ccccc23)o1,"inconclusive: 89.1 µM [inhibitor, single point]",–
CC(C)C[C@H]1C(=O)N2CCC[C@H]2[C@]2(O)O[C@](NC(=O)[C@@H]3C=C4c5cccc6[nH]c(Br)c(c56)C[C@H]4N(C)C3)(C(C)C)C(=O)N12,"inconclusive: 8.43 µM [inhibitor, partial curve]",–
Clc1ccccc1CN1CCN(c2cccc3[nH]ccc23)CC1,"inconclusive: 89.1 µM [inhibitor, single point]",–
CN1C(=O)N(C)C(=O)C2(Cc3c(ccc4ccccc34)N(C)C2)C1=O,"inconclusive: 100 µM [inhibitor, single point]",–
CCCNC(=O)N1[C@H]2CC[C@@H]1C(C(=O)OC)=C(c1cc3ccccc3s1)C2,inactive,–
O=C1NC(=O)N(Cc2ccccc2)C(=O)/C1=C\c1ccco1,"inconclusive: 35.5 µM [inhibitor, full curve, poor fit]",–
Cc1ccccc1C1=NCC(=S)Nc2ccc(Cl)cc21,"inconclusive: 89.1 µM [inhibitor, single point]",–
O=C1NC(=O)N(Cc2ccc(F)cc2)C(=O)/C1=C\c1ccc(N2CCCC2)cc1,"inconclusive: 50.1 µM [inhibitor, partial curve, poor fit]",–
c1ccc(C2CC2)c(OCC2=NCCN2)c1,"inconclusive: 1.89 µM [inhibitor, partial curve, poor fit]",–
COC(=O)CCCNC(=O)CN1CC(c2ccccc2)CC1=O (centres undefined),"inconclusive: 100 µM [inhibitor, single point]",–
CCN(CC)C(=O)Cn1cc(/C=C2\C(=O)NC(=O)N(c3ccccc3F)C2=O)c2ccccc21,"inconclusive: 50.1 µM [inhibitor, partial curve, poor fit]",–
CCn1nc(-c2cccs2)nc2c(=O)n(C)c(=O)nc1-2,inactive,–
O=C1NC(=O)N(CC2CCCO2)C(=O)/C1=C/c1cccs1 (centres undefined),"inconclusive: 17.8 µM [inhibitor, full curve, poor fit]",–
CC[N+](CC)(CC)CCOc1cccc(OCC[N+](CC)(CC)CC)c1OCC[N+](CC)(CC)CC,"inconclusive: 26.7 µM [inhibitor, partial curve, poor fit]",–
O=C(O)CCn1cc(C=C2C(=O)NC(=S)NC2=O)c(-c2cccc(Br)c2)n1,"inconclusive: 17.8 µM [inhibitor, full curve, poor fit]",–
O=C(O)c1ccccc1-c1ccc(C=C2C(=O)N(c3ccccc3)C(=S)N(c3ccccc3)C2=O)o1,"inconclusive: 44.7 µM [inhibitor, partial curve, poor fit]",–
O=c1c(O)c(-c2ccc(O)c(O)c2)oc2cc(O)cc(O)c12,"inconclusive: 11.9 µM [inhibitor, partial curve]",–
Cc1cccc(-n2c(O)c(C=Nc3ccc(Br)cn3)c(=O)[nH]c2=O)c1,"inconclusive: 31.6 µM [inhibitor, full curve, poor fit]",–
C=CCC1C(=O)NC(=S)NC1=O,"inconclusive: 50.1 µM [inhibitor, partial curve, poor fit]",–
Cc1ccc(/C=C2\C(=O)NC(=S)N(c3cccc(F)c3)C2=O)o1,"inconclusive: 10 µM [inhibitor, full curve, poor fit]",–
COCCNC(=O)Cn1cc(C(=O)c2ccccc2F)c2ccccc21,"inconclusive: 70.8 µM [inhibitor, partial curve, poor fit]",–
NCC(CP(=O)(O)O)c1ccc(Cl)cc1 (centres undefined),inactive,–
CSc1nc(Cl)c(Br)c(N2CC2)n1,"inconclusive: 50.1 µM [inhibitor, partial curve, poor fit]",–
CCC(C)N1C(=O)NC(=O)C2(Cc3c(ccc4ccccc34)N(C)C2)C1=O (centres undefined),"inconclusive: 50.1 µM [inhibitor, partial curve, poor fit]",–
CCOC(=O)C1CCCN(c2ccc([N+](=O)[O-])c3nonc23)C1 (centres undefined),inactive,–
CN1C(=O)C(=Cc2ccccc2OCCOc2ccc([N+](=O)[O-])cc2)C(=O)N(C)C1=O,"inconclusive: 70.8 µM [inhibitor, partial curve, poor fit]",–

SMILES,Potency,"activity change, negative = inhibition"
Cc1nc2cc(-c3cccc(F)c3)nn2c(C)c1CCC(=O)N1CCC2(CC1)OCCO2,inactive,–
N#Cc1ccccc1Cn1cc(C(=O)c2cccs2)c2ccccc21,"inconclusive: 89.1 µM [inhibitor, single point]",–
CC(=O)Nc1ccc(N=Cc2c(O)n(Cc3ccco3)c(=O)[nH]c2=O)cc1,"inconclusive: 70.8 µM [inhibitor, single point]",–
CNC(=O)Oc1cccc(-c2cn3cc(OC(=O)NC)ccc3n2)c1,"inconclusive: 89.1 µM [inhibitor, single point]",–
CCC(C)N1C(=O)/C(=C\c2cnc(N(C)C)nc2)C(=O)NC1=S (centres undefined),"inconclusive: 28.2 µM [inhibitor, full curve, poor fit]",–
CC1=NNC(=O)C1Br (centres undefined),"inconclusive: 44.7 µM [inhibitor, partial curve, poor fit]",–
Cc1cccc(OCCn2cccc2/C=C2/C(=O)NC(=O)N(Cc3ccco3)C2=O)c1,"inconclusive: 50.1 µM [inhibitor, partial curve, poor fit]",–
Cn1cccc1/C=C1/C(=O)NC(=S)N(Cc2ccc(F)cc2)C1=O,"inconclusive: 39.8 µM [inhibitor, partial curve, poor fit]",–
NC(Cc1ccc(N(CCCl)CCCl)cc1)C(=O)O (centres undefined),"inconclusive: 26.7 µM [inhibitor, partial curve, poor fit]",–
CCOC(=O)CC(NC(=O)C(Cc1ccc(N(CCCl)CCCl)cc1)NC(C)=O)C(=O)OCC (centres undefined),"inconclusive: 17.8 µM [inhibitor, full curve, poor fit]",–
Cc1cc(O)c2c(c1)C(=O)c1cc(O)cc(O)c1C2=O,"inconclusive: 10.6 µM [inhibitor, partial curve, poor fit]",–
CN(C)C(=O)Oc1cccc([N+](C)(C)C)c1,"inconclusive: 0.0752 µM [inhibitor, partial curve, poor fit]",–
CN(C)c1nc(-c2ccccc2)[n+](C)s1,"inconclusive: 44.7 µM [inhibitor, partial curve, poor fit]",–
CN1C(=O)C(=Cc2ccc(SC3CCCCC3)o2)C(=O)N(C)C1=O,"inconclusive: 28.2 µM [inhibitor, full curve, poor fit]",–
O=C(Cn1cc(C(=O)c2ccccc2F)c2ccccc21)NCc1ccco1,inactive,–
O=C1NC(=O)C(=Cc2ccc(-c3ccc(F)cc3O)o2)C(=O)N1,"inconclusive: 31.6 µM [inhibitor, full curve, poor fit]",–
C[C@]12CC[C@H]3[C@@H](C[C@H](F)C4=CC(=O)CC[C@@]43C)[C@@H]1CC[C@@H]2O,"inconclusive: 1.68 µM [inhibitor, partial curve, poor fit]",–
COc1cc(OC)c(OC)cc1/C=C1\C(=O)NC(=O)N(Cc2ccccc2)C1=O,"inconclusive: 17.8 µM [inhibitor, full curve, poor fit]",–
CN1CCN(C(=S)c2ccc([N+](=O)[O-])cc2)CC1,"inconclusive: 28.2 µM [inhibitor, full curve, poor fit]",–
CNCC(O)c1cccc(OC(=O)c2ccccc2C)c1 (centres undefined),–,inactive: 13.9% [at 11.4 µM]
CC[C@H](C)[C@H](NC(=O)[C@H](C)NC(=O)[C@H](CC(N)=O)NC(=O)[C@H](CCCCN)NC(=O)[C@H](Cc1ccccc1)NC(=O)[C@H](CC(C)C)NC(=O)[C@@H](NC(=O)[C@@H](NC(=O)[C@H](CC(C)C)NC(=O)[C@@H]1CCCN1C(=O)[C@@H](NC(=O)[C@H](CCC(N)=O)NC(=O)[C@H](CO)NC(=O)[C@H](CCCCN)NC(=O)[C@H](CCC(=O)O)NC(=O)[C@H](CO)NC(=O)[C@@H](NC(=O)[C@H](CCSC)NC(=O)[C@H](Cc1ccccc1)NC(=O)CNC(=O)CNC(=O)[C@@H](N)Cc1ccc(O)cc1)[C@@H](C)O)[C@@H](C)O)C(C)C)[C@@H](C)O)C(=O)N[C@H](C(=O)N[C@@H](CCCCN)C(=O)N[C@@H](CC(N)=O)C(=O)N[C@@H](C)C(=O)N[C@@H](Cc1ccc(O)cc1)C(=O)N[C@@H](CCCCN)C(=O)N[C@@H](CCCCN)C(=O)NCC(=O)N[C@@H](CCC(=O)O)C(=O)O)[C@@H](C)CC,"inconclusive: 0.0168 µM [inhibitor, full curve, poor fit]",–
C[C@]12CC[C@@H]3c4ccc(O)c(O)c4CC[C@H]3[C@@H]1CC[C@@H]2O,"inconclusive: 89.1 µM [inhibitor, single point]",–
O=C(O)[C@H]1[C@H]2CN[C@H](C(=O)O)[C@H]21,active: 5.97 µM,–
O=C1NC(=O)N(Cc2ccco2)C(=O)/C1=C/C=C/c1ccco1,"inconclusive: 79.4 µM [inhibitor, partial curve, poor fit]",–
CCOC(=O)C1=CC(=C2C(=O)N(CC)C(=S)N(CC)C2=O)c2ccccc2O1,"inconclusive: 50.1 µM [inhibitor, partial curve, poor fit]",–
Cc1ccc(OCCOc2cccc(C=C3C(=O)NC(=O)NC3=O)c2)cc1,"inconclusive: 31.6 µM [inhibitor, full curve, poor fit]",–
COc1ccc(CN2CCCC(C(=O)c3ccc(Cl)cc3)C2)c(OC)c1 (centres undefined),"inconclusive: 89.1 µM [inhibitor, single point]",–
